The results in this text go back to the supplement of paper PMC12645437, “Orthogonal IMiD-Degron Pairs Induce Selective Protein Degradation in Cells” (ACS Chemical Biology, 2025).

The other results are listed elsewhere or left out.

To fix the notation:
B1: Q9UKT9 (peptide)
chain: FKCEVCGACFTQKGNLLRHIKL
B2: Q9UKT9 (peptide)
chain: FACNQCGAVFTQKGNLLRHIKL
B3: Q9UKT9 (peptide)
chain: FECNVCGAVFTQKGNLLRHIKL
B4: Q9UKT9 (peptide)
chain: FTCNQCGHGFTQKGNLLRHIKL
B5: Q9UKT9 (peptide)
chain: LDCPICGFHCTQKGNLLRHIKL
B6: Q9UKT9 (peptide)
chain: FKCDQCGAIFTQKGNLLRHIKL
B7: Q9UKT9 (peptide)
chain: FDCEICGAPFTQKGNLLRHIKL
B8: Q9UKT9 (peptide)
chain: FHCEICGRFFTQKGNLLRHIKL
B9: Q9UKT9 (peptide)
chain: FTCEQCGAQFTQKGNLLRHIKL
B10: Q9UKT9 (peptide)
chain: FNCPICGRVFTQKGNLLRHIKL
B11: Q9UKT9 (peptide)
chain: FICPVCGAVFTQKGNLLRHIKL
B12: Q9UKT9 (peptide)
chain: LECPICGFHCTQKGNLLRHIKL
B13: Q9UKT9 (peptide)
chain: FGCDVCGADFTQKGNLLRHIKL
B14: Q9UKT9 (peptide)
chain: FRCDQCGAIFTQKGNLLRHIKL
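Also: jurkat cells carrying a lentiviral library of mutant zinc finger degrons fused to EGFP plus mCherry, mCherry+ cells FACS sorted, degron abundance counted by next-generation sequencing.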

The test deals with no compound (DMSO). The experiment in a line: log2 fold change of degron read counts, EGFP-low vs EGFP+ sorted cells; higher = lower degron-EGFP level without compound (poor expression or instability). To be noted: compound: DMSO control; 18 h.
On to B1, for which the “log2 fold change of degron read counts” value was -2.28.
As for B2, the figure is -0.231; as for B3, -2.59.
For B4, the “log2 fold change of degron read counts” value was -0.675.
As to B5, the “log2 fold change of degron read counts” value turned out to be 0.456.
Turning to B6, the “log2 fold change of degron read counts” value is -1.87.
As for B7, the figure is -1.19.
As for B8, the figure is -0.588.
Turning to B9, the “log2 fold change of degron read counts” value is -2.57.
B10: the “log2 fold change of degron read counts” value amounted to 0.42.
For the sequence B11, the “log2 fold change of degron read counts” value was 0.172.
B12: the “log2 fold change of degron read counts” value was found to be 0.149.
For B13, the “log2 fold change of degron read counts” value was -1.13.
As for B14, the “log2 fold change of degron read counts” value was -1.11.
